# Experimental data as given in PubChem BioAssay AID2451 (National Center for Advancing Translational Sciences (NCATS), 2010).
# The campaign covered roughly 290,000 compounds. About 2,100 (0.72%) were called active. This list was built around the results that the source calls inconclusive (neither active nor inactive); the mix of calls is not that of the screen. Calls come from the whole dose curve; as a rule, active = well fitted inhibition curve with a large enough effect; inconclusive = small, poorly fitted or top-dose-only effect, or effect the other way; inactive = flat fitted curve, though single readings scatter. A potency beside an inconclusive call is a rough fit, not a confirmed value.
# Target: Fructose-bisphosphate aldolase (Giardia intestinalis (strain ATCC 50803 / WB clone C6)) (UniProt A8B2U2)
# Assay: qHTS Assay for Inhibitors of Fructose-1,6-bisphosphate Aldolase from Giardia Lamblia; note: nearly all actives have a fitted effect of over 55% in size
# Settings: purified Giardia FBPA; activity, negative = inhibition: at 59.6 µM (top of the series) unless noted
# Text: Assay Provider: Osnat Herzberg, University of Maryland
# The objective of this project is to obtain compounds that inhibit Giardia lamblia growth. G. lamblia is a human pathogen which afflicts impoverished nations; it is the most common cause of outbreaks of diarrhea in the United States. During the course of our study of potential drug targets in Giardia, we have identified the Class II (Zn2+ functions in electrophilic catalysis) fructose-1,6-bisphosphate aldolase (FBPA) as an excellent candidate for drug targeting. FBPA is a key glycolytic pathway enzyme, essential for G. lamblia survival. The human FBPA belongs to the Class I aldolases, which have a different substrate binding site structure and a radically different catalytic mechanism (employing a lysine-Schiff base intermediate). Therefore, affinity-based or mechanism-based inhibitors of the Giardia FBPA are expected not to interfere with the catalytic function of the human FBPA.
# A glyceraldehyde-3-phosphate dehydrogenase/triose phosphate isomerase/NAD/arsenate coupled assay was adapted to the 1536-well HTP format for use in the primary screen. This was done by coupling it to a diaphorase/resazurin/resorufin reaction that can be monitored by fluorescence (excitation, 544 nm; emission, 590 nm). Compounds identified in this screen will be further evaluated by coupling the glycerol-3-phosphate/triose phosphate isomerase/NADH assay to a phenazine methosulfate/tetranitroblue tetrazolium color reaction. False positives due to the dehydrogenases and diaphorase inhibition will be eliminated, and selectivity assay will triage inhibitors of mammalian triose phosphate isomerase and the Class I FBPA. G. lamblia FBPA inhibitors identified by the in vitro analyses will be examined for growth inhibition of Giardia trophozoites, and for cytotoxicity in human cells.
# Step,Parameter,Value,Description
# 1,Enzyme reagent,2 uL,40 nM FBPA
# 2,Compound,23 nL,3.68 nM-57.5 uM final concentration
# 3,Time,10 min,RT Incubation
# 4,Substrate/detection Reagent,2 uL,Substrate + enzyme coupling system + AmpLite Red kit
# 5,Time,20 min,RT Incubation
# 6,Detector,525 nm/598 nm (Fluorescence),ViewLux Fluorescence Read (Read 1)
# 1,Medium-binding black solid-bottom Kalypsys plates. FRD or Kalypsys dispenser, 2 uL of FBPA enzyme. Bottle kept at 4C.
# 2,Compound Library (10 mM ,1:5 dilution). Pin-transferred for a [final] range of 3.68 nM-57.5 uM.
# 4,FRD or Kalypsys dispenser, 2 uL of reaction mixture. Bottle kept at 4C and covered in foil to protect from light.
# 6,ViewLux Protocol 1194; Excitation filter wheel A (525/20 Pol; BODIPY TMR FP), Emission filter wheel B (598/25 S; BODIPY TMR FP S).
# Keywords: Fructose-bisphosphate aldolase, FBPA , Giardia lamblia , Giardia, HTS, Inhibitors
# % is set by controls: 0 for no effect and ±100 for the full control effect; potency is the fitted concentration of half-maximal effect; tags give direction and shape of the fitted curve.
# UniProt A8B2U2, sequence (A8B2U2 whole entry, looked up): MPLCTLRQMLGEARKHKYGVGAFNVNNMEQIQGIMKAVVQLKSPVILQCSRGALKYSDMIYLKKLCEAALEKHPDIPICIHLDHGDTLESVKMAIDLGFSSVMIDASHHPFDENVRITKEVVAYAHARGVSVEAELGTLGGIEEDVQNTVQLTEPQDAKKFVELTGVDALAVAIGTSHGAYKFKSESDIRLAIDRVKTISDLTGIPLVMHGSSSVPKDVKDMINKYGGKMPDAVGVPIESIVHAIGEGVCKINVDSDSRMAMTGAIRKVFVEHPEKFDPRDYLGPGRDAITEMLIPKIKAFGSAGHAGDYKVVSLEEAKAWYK
Structure (SMILES),Potency,"activity, negative = inhibition"
C=CCNCc1cccn1-c1ccccc1,"inconclusive: 11.2 µM [inhibitor, partial curve]",–
Cc1ccc(-c2nnc(N3CCN(C(=O)COc4cccc(C)c4)CC3)c3ccccc23)cc1,–,inactive: 10.4%
CCOC(=O)C1(Cc2ccccc2C)CCCN(C(=O)c2ccnn2C)C1 (stereo not drawn),–,inactive: -0.147%
CCOc1ccc(CNC(c2ccccc2)c2ccccc2)cc1,"inconclusive: 39.8 µM [inhibitor, single point]",–
CSc1ccc(/C=N\Nc2nncn2N)cc1,"inconclusive: 17.8 µM [inhibitor, single point]",–
COC(=O)c1ccccc1NC(=O)CSc1n[nH]c(-c2ccco2)n1,"inconclusive: 12.6 µM [inhibitor, partial curve]",–
O=C(CNCc1cccs1)Nc1ccc(N2CCCCCC2)cc1,active: 17.7 µM,–
O=C(NCC(=O)N1CCCCC1)c1ccc(Cl)cc1Cl,–,inactive: -0.847%
Cc1cccc(Oc2ccc3c(c2)cc(C(=O)O)n3C)c1,–,inactive: 7.65%
c1ccc2[nH]c(SCc3cn4cccnc4n3)nc2c1,"inconclusive: 7.06 µM [activator, single point]",–
CCOC(=O)C1CCN(C(=O)c2cc(C(C)(C)C)nn2Cc2ccccc2)CC1,–,inactive: -2.73%
COc1ccccc1NCC(=O)NNC(C)C(=O)Nc1cccc(Cl)c1 (stereo not drawn),"inconclusive: 17.7 µM [inhibitor, single point]",–
Cc1cc(C)n(-c2nnc(C)n2NS(C)(=O)=O)n1,"inconclusive: 19.9 µM [inhibitor, single point]",–
COc1ccc(NC2=C(NC(C)=O)C(=O)c3ccccc3C2=O)cc1,"inconclusive: 12.6 µM [inhibitor, partial curve]",–
CC(C)C(=O)N(c1cc2sc(=O)oc2c2ccccc12)S(=O)(=O)c1cccs1,"inconclusive: 5.61 µM [inhibitor, partial curve]",–
C=CCNC(=S)/C(=C(/[O-])c1ccccc1Br)[n+]1ccccc1,"inconclusive: 17.7 µM [inhibitor, partial curve]",–
COc1cccc(C2=Nn3c(nnc3-c3ccccc3OC)SC2)c1,"inconclusive: 15.8 µM [inhibitor, partial curve]",–
COc1ccc(C(=O)Nc2cccc(/C(C)=N\NC(=O)c3ccoc3C)c2)cc1OC,–,inactive: -10.3%
O=C(O)c1ccccc1C(=O)Nc1n[nH]c(=S)s1,active: 9.98 µM,–
CCC1Cc2c(nc(N)c3c(N)nc(N4CCCCC4)c(C#N)c23)O1 (stereo not drawn),"inconclusive: 15.8 µM [inhibitor, partial curve]",–
O=C(O)C1Sc2[nH]c(=O)sc2C2c3ccc(O)cc3OC(=O)C12 (stereo not drawn),"inconclusive: 15.8 µM [inhibitor, partial curve]",–
COc1cc(/C=N/NC(=O)c2ccoc2C)cc(OC)c1O,–,inactive: -5.71%
CCOc1ccc(-n2ccc(=O)c(C(=O)Nc3ccc(S(=O)(=O)Nc4nccs4)cc3)n2)cc1,"inconclusive: 39.8 µM [inhibitor, single point]",–
COC(=O)c1ccccc1NC(=O)CNCCc1ccc(OC)c(OC)c1,"inconclusive: 17.8 µM [inhibitor, partial curve]",–
COc1ccc(NC(=O)C2=NN(C3CCS(=O)(=O)C3)C(=O)CC2)cn1 (stereo not drawn),"inconclusive: 15.8 µM [inhibitor, partial curve]",–
COc1cc(/C=C2\CCCc3c2nc2ccccc2c3C(=O)O)cc(OC)c1O,"inconclusive: 15.8 µM [inhibitor, partial curve]",–

Structure (SMILES),Potency,"activity, negative = inhibition"
COc1ccc(Cl)cc1NC(=O)N1CCC(C)CC1,"inconclusive: 15.8 µM [inhibitor, partial curve]",–
COc1ccc(OC)c(CNc2ccc3c(c2)nc(C)n3C)c1,–,inactive: -8.01%
CC1CN(CCOc2ccccc2-c2ccccc2)CC(C)O1 (stereo not drawn),"inconclusive: 19.9 µM [inhibitor, partial curve]",–
CCC(C)[C@@H](C(=O)Nc1ccc(OC)c(OC)c1)N1Cc2ccccc2C1=O (stereo partly drawn),"inconclusive: 14.1 µM [inhibitor, partial curve]",–
CC1CN(CCCOc2ccccc2[N+](=O)[O-])CC(C)O1 (stereo not drawn),"inconclusive: 14.1 µM [inhibitor, partial curve]",–
Cc1cccc2cc(CN(Cc3ccco3)C(=O)c3cccs3)c(=O)[nH]c12,–,inactive: 12%
O=C1CCN(c2ncccc2[N+](=O)[O-])CC1,–,inactive: -0.522%
CCOc1ccc(C(=O)NCc2ccccc2OC)cc1,–,inactive: -5.47%
O=C(O)C1CCCC2CN3CCc4c([nH]c5ccccc45)C3C(O)C21 (stereo not drawn),"inconclusive: 12.6 µM [inhibitor, partial curve]",–
O=c1oc2c3c4c(cc2s1)CCCN4CCC3,"inconclusive: 15.8 µM [inhibitor, single point]",–
COC(CSc1nc(N)c2c3c(sc2n1)CN(C)CC3)OC,"inconclusive: 20 µM [inhibitor, partial curve]",–
Cc1ccc2c(c1)=C/C(=C\c1c(O)[nH]c(=S)[nH]c1=O)C(=O)N=2,"inconclusive: 14.1 µM [inhibitor, partial curve]",–
CCSc1nnc(-c2c[nH]c3ccccc23)o1,–,inactive: -1.4%
CCOc1ccccc1C(=O)Nc1nn[nH]n1,"inconclusive: 15.8 µM [inhibitor, partial curve]",–
O=C(Nc1cccnc1)Nc1ccc(F)c(Cl)c1,–,inactive: 3.28%
Nc1nc(/C(=C/CC(=O)O)C(=O)NC2C(=O)N3C(C(=O)O)=CCSC23)cs1 (stereo not drawn),"inconclusive: 15.8 µM [inhibitor, single point]",–
O=C(CN1CCc2ccccc2C1)Nc1cc(S(=O)(=O)N2CCOCC2)ccc1N1CCOCC1,–,inactive: -4.71%
CCNc1ccc(Br)cc(C(=O)/C=C/c2ccc(Cl)cc2Cl)c1=O,"inconclusive: 6.29 µM [inhibitor, full curve]",–
CCOc1ccc(Cc2n[nH]c(=S)n2N)cc1,"inconclusive: 3.15 µM [inhibitor, full curve, poor fit]",–
c1ccc(N2CCN(c3c4c(nc5ncnn35)CCC4)CC2)cc1,–,inactive: 0.185%
CNC(=S)N/N=C(\C)c1ccc2c(c1)OCO2,"inconclusive: 15.8 µM [inhibitor, single point]",–
COc1cc(CNc2ncc(-c3ccc(Br)cc3)n2C)cc(OC)c1O,"inconclusive: 14.1 µM [inhibitor, partial curve]",–
O=C1C=C(Nc2ccccc2C(=O)O)c2ccccc2C1=O,active: 1.58 µM,–
Cc1ccc(NC(=O)C2COc3ccccc3O2)nc1 (stereo not drawn),–,inactive: 5.99%
O=C(O)c1cccc(N2C(=O)c3cc([N+](=O)[O-])cc4cc([N+](=O)[O-])cc(c34)C2=O)c1,"inconclusive: 17.8 µM [inhibitor, partial curve]",–
CCOC(=O)/C(=C/c1ccc(OC(=O)c2ccccc2)cc1)C(C)=O,–,inactive: -1.2%

Structure (SMILES),Potency,"activity, negative = inhibition"
Cc1cc2nc(CS)[nH]c2cc1C,"inconclusive: 17.7 µM [inhibitor, single point]",–
CCOc1cccc(OCCCNCCCOC)c1,"inconclusive: 17.7 µM [inhibitor, partial curve]",–
N[C@@H](Cc1c[nH]c2ccc(O)cc12)C(=O)O,"inconclusive: 5 µM [inhibitor, partial curve]",–
C/C(=N\Nc1nc(C)cc(C)n1)c1ccc(N2CCOCC2)cc1,–,inactive: 1.7%
COc1ccc(OCCCCN2CCC(C)CC2)cc1,"inconclusive: 12.6 µM [inhibitor, partial curve]",–
COc1cccc(OCCCN2CCCCCC2)c1,"inconclusive: 19.9 µM [inhibitor, partial curve]",–
N#CC1=C(N)SC(N)=C(C#N)C1c1ccc([N+](=O)[O-])cc1,"inconclusive: 14.1 µM [inhibitor, partial curve]",–
Cc1cc(-c2ccc(C(C)C)c(S(=O)(=O)N3CCOc4ccccc43)c2)on1,–,inactive: -4.77%
CCC(=O)N1CCC(c2ccc(OC)cc2)=N1,–,inactive: 2.08%
CCOC(=O)c1ccc(N/C=C/C(=O)c2ccccc2)cc1,"inconclusive: 17.7 µM [inhibitor, partial curve]",–
Cc1ccc(-c2csc(NC(=O)Cc3ccc(F)cc3)n2)o1,–,inactive: -18.7%
Cc1cc(C)nc(N/N=C/C2=C(O)CC(c3ccccc3)CC2=O)n1 (stereo not drawn),"inconclusive: 19.9 µM [inhibitor, single point]",–
O=C(NC(=S)Nc1ccc(Br)cn1)c1cccs1,"inconclusive: 22.3 µM [inhibitor, partial curve]",–
CN(C)c1ncc2ncc(=O)n(C)c2n1,–,inactive: -8.25%
CNC(=S)NNC(=O)c1sc2cc(C(F)(F)F)cnc2c1-c1ccccn1,"inconclusive: 17.7 µM [inhibitor, single point]",–
O=C(CCn1cccc1)Nc1cccc(F)c1,–,inactive: 2.21%
CCOC(=O)c1sc2nc(Cc3ccc(Cl)cc3)[nH]c(=S)c2c1C,–,inactive: 6.18%
CN1c2ccccc2N(C)C1(C)c1cccc2ccccc12,"inconclusive: 15.8 µM [inhibitor, partial curve]",–
COc1ccc(CCN2CN(S(=O)(=O)c3ccc(OC)cc3)c3nc4ccccc4nc32)cc1,–,inactive: -6.22%
Cc1ccc(C(=O)NC2CCN(C(=O)Nc3ccc(F)cc3)CC2)cc1,–,inactive: -11.8%
Cn1c(C(=O)NCC2CCCO2)cc2oc3ccccc3c21 (stereo not drawn),–,inactive: -6.9%
COCc1nnc(NC(=O)CSc2ccccc2)s1,"inconclusive: 14.1 µM [inhibitor, partial curve]",–
CCc1c(O)nc(SCC(=O)N2CCOCC2)n(-c2ccccc2)c1=O,–,inactive: 0.167%
Cc1ccccc1C(=O)Nn1cnc2ccccc2c1=O,–,inactive: 4.63%
Cc1cc(NC(=O)NC(=O)c2ccc(F)cc2F)n[nH]1,–,inactive: -2.88%
C/C(Cn1nnc([N+](=O)[O-])n1)=N\NC(=O)c1ccccc1,"inconclusive: 11.2 µM [inhibitor, partial curve]",–
